Experimental data as given in patent publication US6319955A, “Use of MEK1 inhibitors as protective agents against damage due to ischemia” (priority 2000, dated 2001).

What was measured:
HT22 cells [1] = assay type: cell-based, mouse
HT22 cells [2] = test: HT22 cell death by TNFα plus actinomycin D (MTT assay); assay type: cell-based, mouse; conditions: each agent alone

Row | Compound | A23187 concentration inducing death in HT22 cells (HT22 cells [1]) | cell death induced (HT22 cells [1]) | cell death induced by single agent (HT22 cells [2])
1 | CNc1ccc2oc(C[C@H]3O[C@@]4(CC[C@H]3C)O[C@H]([C@H](C)C(=O)c3ccc[nH]3)[C@H](C)C[C@H]4C)nc2c1C(=O)O [A23187] | > 300 nM | extensive cell death | 
2 | Cc1c2oc3c(C)ccc(C(=O)N[C@@H]4C(=O)N[C@H](C(C)C)C(=O)N5CCC[C@H]5C(=O)N(C)CC(=O)N(C)[C@@H](C(C)C)C(=O)O[C@@H]4C)c3nc-2c(C(=O)N[C@@H]2C(=O)N[C@H](C(C)C)C(=O)N3CCC[C@H]3C(=O)N(C)CC(=O)N(C)[C@@H](C(C)C)C(=O)O[C@@H]2C)c(N)c1=O [actinomycin D] (I: T[dV]P[Sar][NMeV] / II: T[dV]P[Sar][NMeV]; ester I:1-I:C, II:1-II:C; linker I:N-II:N via Actinocin(9to1)) |  |  | Neither TNFα nor actinomycin D induced death
3 | TNFα |  |  | Neither TNFα nor actinomycin D induced death

Numbered stars: 1 amine (or outer) side, 2 acyl side, 3 side chain; on linkers, the order of the positions; unused ones are H or OH. Bridge positions count the residues as written; N and C are the ends. Square brackets hold non-standard residues; d marks the D form. Peptide text beside a SMILES is read from it. I, II: the chains in the order shown. Actinocin(9to1) = Cc1c2oc3c(C)ccc(C(=O)[*:1])c3nc-2c(C(=O)[*:2])c(N)c1=O; NMeV = CN[C@H](C(=O)O)C(C)C; Sar = CNCC(=O)O
